# Data: article PMC12820563
# The other results are listed elsewhere or left out. The list includes weakly bound sequences.
# Molecular target: T1, MBP-FoxP3dN (UniProt Q99JB6)
# T1 sequence: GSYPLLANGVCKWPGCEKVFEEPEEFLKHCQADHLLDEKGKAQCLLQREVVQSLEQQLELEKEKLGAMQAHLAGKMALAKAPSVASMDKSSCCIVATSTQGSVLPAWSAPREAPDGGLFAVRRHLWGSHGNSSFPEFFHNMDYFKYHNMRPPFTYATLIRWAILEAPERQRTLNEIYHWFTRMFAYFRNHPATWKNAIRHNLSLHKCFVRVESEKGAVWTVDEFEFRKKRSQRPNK
# Test: PD-seq (MBP pull-down with sequencing)
# Details: 20 mM Tris-HCl pH 7.5, 100 mM NaCl, 1.5 mM MgCl2, 0.4 uM protein, 0.1 uM dsDNA library, 30 min, room temperature, amylose pull-down; high values mean tight binding; double strand, one strand shown
row,Sequence,binding signal (RPM ratio (pull-down/input))
1,GATGATTGTTCTCCCAGCTGATGAATTAGTGTCTTCGAGTAAACAAATTTTCCTAATCTTTCTGTTCAAGCGCCATCTAC,2.04
2,GATGATTGTTCTCCCAGCTGATGAATTTAGCATATCGAGTAAACAAATTTTCCTAATCTTTCTGTTCAAGCGCCATCTAC,3.03
3,GATGATTGTTCTCCCAGCTGATGAATTGAGAGAATCGAGTAAACAAATTTTCCTAATCTTTCTGTTCAAGCGCCATCTAC,0.214
4,GATGATTGTTCTCCCAGCTGATGAATTTGTAGACTCGAGTAAACAAATTTTCCTAATCTTTCTGTTCAAGCGCCATCTAC,3.06
5,GATGATTGTTCTCCCAGCTGATGAATTTCAGCGGTCGAGTAAACAAATTTTCCTAATCTTTCTGTTCAAGCGCCATCTAC,0.296
6,GATGATTGTTCTCCCAGCTGATGAATTCTCATTCTCGAGTAAACAAATTTTCCTAATCTTTCTGTTCAAGCGCCATCTAC,0.373
7,GATGATTGTTCTCCCAGCTGATGAATTTGCGAGGTCGAGTAAACAAATTTTCCTAATCTTTCTGTTCAAGCGCCATCTAC,0.628
8,GATGATTGTTCTCCCAGCTGATGAATTATTATCTTCGAGTAAACAAATTTTCCTAATCTTTCTGTTCAAGCGCCATCTAC,0.879
9,GATGATTGTTCTCCCAGCTGATGAATTCTTCCTATCGAGTAAACAAATTTTCCTAATCTTTCTGTTCAAGCGCCATCTAC,0.273
10,GATGATTGTTCTCCCAGCTGATGAATTTAAGGGCTCGAGTAAACAAATTTTCCTAATCTTTCTGTTCAAGCGCCATCTAC,0.223
11,GATGATTGTTCTCCCAGCTGATGAATTGTGGCCATCGAGTAAACAAATTTTCCTAATCTTTCTGTTCAAGCGCCATCTAC,2.14
12,GATGATTGTTCTCCCAGCTGATGAATTTCTTACGTCGAGTAAACAAATTTTCCTAATCTTTCTGTTCAAGCGCCATCTAC,0.257
13,GATGATTGTTCTCCCAGCTGATGAATTGATCGTGTCGAGTAAACAAATTTTCCTAATCTTTCTGTTCAAGCGCCATCTAC,0.703
14,GATGATTGTTCTCCCAGCTGATGAATTCACACAGTCGAGTAAACAAATTTTCCTAATCTTTCTGTTCAAGCGCCATCTAC,0.304
15,GATGATTGTTCTCCCAGCTGATGAATTAGTATTATCGAGTAAACAAATTTTCCTAATCTTTCTGTTCAAGCGCCATCTAC,2.21
16,GATGATTGTTCTCCCAGCTGATGAATTCCTCTGGTCGAGTAAACAAATTTTCCTAATCTTTCTGTTCAAGCGCCATCTAC,0.195
17,GATGATTGTTCTCCCAGCTGATGAATTAATGCCATCGAGTAAACAAATTTTCCTAATCTTTCTGTTCAAGCGCCATCTAC,3.34
18,GATGATTGTTCTCCCAGCTGATGAATTATAAGGTTCGAGTAAACAAATTTTCCTAATCTTTCTGTTCAAGCGCCATCTAC,0.325
19,GATGATTGTTCTCCCAGCTGATGAATTGAATGCCTCGAGTAAACAAATTTTCCTAATCTTTCTGTTCAAGCGCCATCTAC,1.13
20,GATGATTGTTCTCCCAGCTGATGAATTACTCCCGTCGAGTAAACAAATTTTCCTAATCTTTCTGTTCAAGCGCCATCTAC,0.241
21,GATGATTGTTCTCCCAGCTGATGAATTGAGTTGCTCGAGTAAACAAATTTTCCTAATCTTTCTGTTCAAGCGCCATCTAC,1.28

row,Sequence,binding signal (RPM ratio (pull-down/input))
1,GATGATTGTTCTCCCAGCTGATGAATTTCGGGAGTCGAGTAAACAAATTTTCCTAATCTTTCTGTTCAAGCGCCATCTAC,0.232
2,GATGATTGTTCTCCCAGCTGATGAATTCGTCTGCTCGAGTAAACAAATTTTCCTAATCTTTCTGTTCAAGCGCCATCTAC,0.519
3,GATGATTGTTCTCCCAGCTGATGAATTGAGTGCTTCGAGTAAACAAATTTTCCTAATCTTTCTGTTCAAGCGCCATCTAC,0.713
4,GATGATTGTTCTCCCAGCTGATGAATTTCTAGAGTCGAGTAAACAAATTTTCCTAATCTTTCTGTTCAAGCGCCATCTAC,0.185
5,GATGATTGTTCTCCCAGCTGATGAATTATGATCTTCGAGTAAACAAATTTTCCTAATCTTTCTGTTCAAGCGCCATCTAC,0.626
6,GATGATTGTTCTCCCAGCTGATGAATTGAATTGTTCGAGTAAACAAATTTTCCTAATCTTTCTGTTCAAGCGCCATCTAC,2.02
7,GATGATTGTTCTCCCAGCTGATGAATTCATACTGTCGAGTAAACAAATTTTCCTAATCTTTCTGTTCAAGCGCCATCTAC,0.429
8,GATGATTGTTCTCCCAGCTGATGAATTCTACTACTCGAGTAAACAAATTTTCCTAATCTTTCTGTTCAAGCGCCATCTAC,0.369
9,GATGATTGTTCTCCCAGCTGATGAATTAGTGTTCTCGAGTAAACAAATTTTCCTAATCTTTCTGTTCAAGCGCCATCTAC,3.2
10,GATGATTGTTCTCCCAGCTGATGAATTATCGAGATCGAGTAAACAAATTTTCCTAATCTTTCTGTTCAAGCGCCATCTAC,0.249
11,GATGATTGTTCTCCCAGCTGATGAATTGAGGCACTCGAGTAAACAAATTTTCCTAATCTTTCTGTTCAAGCGCCATCTAC,1.23
12,GATGATTGTTCTCCCAGCTGATGAATTTCATCCGTCGAGTAAACAAATTTTCCTAATCTTTCTGTTCAAGCGCCATCTAC,0.371
13,GATGATTGTTCTCCCAGCTGATGAATTTCTTCTATCGAGTAAACAAATTTTCCTAATCTTTCTGTTCAAGCGCCATCTAC,0.265
14,GATGATTGTTCTCCCAGCTGATGAATTAAGGTTCTCGAGTAAACAAATTTTCCTAATCTTTCTGTTCAAGCGCCATCTAC,0.672
15,GATGATTGTTCTCCCAGCTGATGAATTACTGTTATCGAGTAAACAAATTTTCCTAATCTTTCTGTTCAAGCGCCATCTAC,1.08
16,GATGATTGTTCTCCCAGCTGATGAATTAAATGTTTCGAGTAAACAAATTTTCCTAATCTTTCTGTTCAAGCGCCATCTAC,1.12
17,GATGATTGTTCTCCCAGCTGATGAATTACAGGCTTCGAGTAAACAAATTTTCCTAATCTTTCTGTTCAAGCGCCATCTAC,0.604
18,GATGATTGTTCTCCCAGCTGATGAATTGGCACGGTCGAGTAAACAAATTTTCCTAATCTTTCTGTTCAAGCGCCATCTAC,0.277
19,GATGATTGTTCTCCCAGCTGATGAATTCTCATGATCGAGTAAACAAATTTTCCTAATCTTTCTGTTCAAGCGCCATCTAC,0.31
20,GATGATTGTTCTCCCAGCTGATGAATTGTATTCCTCGAGTAAACAAATTTTCCTAATCTTTCTGTTCAAGCGCCATCTAC,1.97
21,GATGATTGTTCTCCCAGCTGATGAATTAGCGGGCTCGAGTAAACAAATTTTCCTAATCTTTCTGTTCAAGCGCCATCTAC,0.313

row,Sequence,binding signal (RPM ratio (pull-down/input))
1,GATGATTGTTCTCCCAGCTGATGAATTGAACCCGTCGAGTAAACAAATTTTCCTAATCTTTCTGTTCAAGCGCCATCTAC,0.226
2,GATGATTGTTCTCCCAGCTGATGAATTACATAAATCGAGTAAACAAATTTTCCTAATCTTTCTGTTCAAGCGCCATCTAC,0.499
3,GATGATTGTTCTCCCAGCTGATGAATTTTTCTTGTCGAGTAAACAAATTTTCCTAATCTTTCTGTTCAAGCGCCATCTAC,0.275
4,GATGATTGTTCTCCCAGCTGATGAATTCTGTTCATCGAGTAAACAAATTTTCCTAATCTTTCTGTTCAAGCGCCATCTAC,0.794
5,GATGATTGTTCTCCCAGCTGATGAATTCACTAAATCGAGTAAACAAATTTTCCTAATCTTTCTGTTCAAGCGCCATCTAC,0.211
6,GATGATTGTTCTCCCAGCTGATGAATTTAGTACTTCGAGTAAACAAATTTTCCTAATCTTTCTGTTCAAGCGCCATCTAC,0.745
7,GATGATTGTTCTCCCAGCTGATGAATTGGACGGGTCGAGTAAACAAATTTTCCTAATCTTTCTGTTCAAGCGCCATCTAC,0.186
8,GATGATTGTTCTCCCAGCTGATGAATTCTATGTATCGAGTAAACAAATTTTCCTAATCTTTCTGTTCAAGCGCCATCTAC,2.49
9,GATGATTGTTCTCCCAGCTGATGAATTAGACTGCTCGAGTAAACAAATTTTCCTAATCTTTCTGTTCAAGCGCCATCTAC,0.376
10,GATGATTGTTCTCCCAGCTGATGAATTAGTTACCTCGAGTAAACAAATTTTCCTAATCTTTCTGTTCAAGCGCCATCTAC,1.16
11,GATGATTGTTCTCCCAGCTGATGAATTAAGCCAGTCGAGTAAACAAATTTTCCTAATCTTTCTGTTCAAGCGCCATCTAC,1.37
12,GATGATTGTTCTCCCAGCTGATGAATTTAGCCGATCGAGTAAACAAATTTTCCTAATCTTTCTGTTCAAGCGCCATCTAC,0.478
13,GATGATTGTTCTCCCAGCTGATGAATTTGGTCGCTCGAGTAAACAAATTTTCCTAATCTTTCTGTTCAAGCGCCATCTAC,0.421
14,GATGATTGTTCTCCCAGCTGATGAATTGCAGGCCTCGAGTAAACAAATTTTCCTAATCTTTCTGTTCAAGCGCCATCTAC,0.825
15,GATGATTGTTCTCCCAGCTGATGAATTTAGTCTTTCGAGTAAACAAATTTTCCTAATCTTTCTGTTCAAGCGCCATCTAC,0.744
16,GATGATTGTTCTCCCAGCTGATGAATTCTTCGATTCGAGTAAACAAATTTTCCTAATCTTTCTGTTCAAGCGCCATCTAC,0.253
17,GATGATTGTTCTCCCAGCTGATGAATTGGAGCGATCGAGTAAACAAATTTTCCTAATCTTTCTGTTCAAGCGCCATCTAC,0.474
18,GATGATTGTTCTCCCAGCTGATGAATTGAATTAATCGAGTAAACAAATTTTCCTAATCTTTCTGTTCAAGCGCCATCTAC,0.295
19,GATGATTGTTCTCCCAGCTGATGAATTTTCCTGCTCGAGTAAACAAATTTTCCTAATCTTTCTGTTCAAGCGCCATCTAC,0.223
20,GATGATTGTTCTCCCAGCTGATGAATTGATTGATTCGAGTAAACAAATTTTCCTAATCTTTCTGTTCAAGCGCCATCTAC,1.74
21,GATGATTGTTCTCCCAGCTGATGAATTTGCGAGTTCGAGTAAACAAATTTTCCTAATCTTTCTGTTCAAGCGCCATCTAC,1.22
